In the supplement of paper PMC3334620:
The full ranking holds about 33,000 sequences; the median of “E-score (-0.5 to 0.5)” is about -0.054, and the highest 2% start at about 0.39. The list shows a part of the results.

Molecular target: Ylr278c (UniProt Q05854)
Assay: PBM E-score (8-mer binding enrichment) (E-score (-0.5 to 0.5)); higher = stronger / more preferred TF binding; most listed sequences are background and not binding sites
Conditions: protein concentration: 200 nM; construct: GST-DNA-binding domain
Method in brief: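 Bound GST-tagged yeast transcription factors, applied at about 100-200 nM to double-stranded universal all-10-mer Agilent arrays, were detected with fluorescent anti-GST. Scans were normalised with masliner. A modified Wilcoxon-Mann-Whitney statistic, the E-score, was assigned to each ungapped eight-base word pooled with its reverse complement by the Universal PBM Analysis Suite.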

Sequence | PBM E-score
GGCGAGAC | -0.224
ATTTTGTC | 0.099
CAGTCGAA | -0.212
AAGTTATT | -0.0271
ACGCTAAA | -0.18
GGCCATCA | 0.00451
ACCTTCAT | 0.0238
GATCTGAA | -0.0719
ATAAAGTG | -0.0736
CCTAGGAA | 0.00058
GATGTCTA | -0.163
AATGGAAT | 0.0961
CCTTTACG | -0.0818
CTGAAGCC | -0.0673
CTGACTCA | -0.305
CAGTACGC | -0.00189
CAATGTGG | -0.166
ACTAGATA | -0.129
ATAGTTTC | -0.0564
AAACACGC | 0.0902
CAAGTAGG | -0.189
GACCTCTA | -0.231
GACGATCA | -0.132
ACGTCGCG | -0.0651
GTCATAAA | -0.103

Sequence | PBM E-score
GCTTTGGA | 0.141
AACATCGC | 0.0269
CAACTCCA | 0.0206
AATTGGAT | -0.126
ATTAAAAT | 0.00827
CTTATTCA | -0.178
TAATAAGA | -0.0688
CGGGACTC | 0.341
ATCCCTGG | -0.236
AGAAATAT | 0.0411
CGTCGAGA | -0.158
AATAACTA | -0.0897
GACGTGGC | -0.0942
CGGAGTAA | 0.468
CCATTAAG | -0.185
AAAACATT | -0.249
GCAATGAC | -0.246
CGGTAGTC | 0.195
TCCCACAA | -0.0305
ATGCAAGA | -0.214
GAAGTCTA | -0.143
ACCAGGCG | -0.0563
AGGATAAT | -0.138
AACATCTT | -0.026
AGCATCGA | -0.0845

Sequence | PBM E-score
TGTGCGAA | -0.173
AGTACCCA | -0.139
CTGCTCCC | -0.111
TCCTTAAA | -0.322
AAAAGCTA | -0.126
ATAAAGTA | -0.0961
CACCCTCA | -0.212
GGGTTTTA | 0.237
ACGCCCGG | 0.305
CGGGGCTA | 0.178
AAGTCTTG | -0.25
CTTTACTC | 0.00542
CATACATG | -0.233
CTCCAAGC | -0.15
GGGCGCGA | 0.186
AGAGGAAG | -0.211
CAGCCTCC | -0.0182
ATGTTACG | -0.168
ACTCGCAA | -0.172
CCCTCAGC | -0.0523
AAATCACG | 0.11
CCCGCGGC | 0.336
GGCCTCAA | -0.0423
AGCCCCGG | 0.378
GATCAACA | -0.246

Sequence | PBM E-score
CGTGAGAC | -0.0417
AAACCTGG | -0.0736
CACGAGCA | -0.168
TCCGCAGA | 0.317
ATCCGCGC | 0.251
AATCTCGG | 0.308
AACGGCAT | 0.245
ACAACAGT | 0.0333
CAGATGAC | -0.167
ACTCAAAC | -0.184
GACTTACC | 0.171
CTCAGCGC | 0.00585
GGGGGGTA | -0.057
AACAATTG | -0.197
GGCCCCCA | -0.135
CTACTAGC | 0.0383
ACGACCCC | 0.0131
GATGCTGA | -0.264
ACGGAAAG | 0.285
GACGCTAC | -0.0529
CTTACCAA | -0.152
CTATACCC | 0.0559
TGTCACAA | -0.0454
ACTAACCT | -0.075
CGGACGAG | 0.227

Sequence | PBM E-score
AATGAATA | -0.0622
GTACCGCA | 0.164
CCAACACG | -0.138
GCCTGTCC | -0.132
TCTTCACA | -0.145
CGCACAAC | 0.0103
ATCTCCGA | 0.478
ATGAAGCC | 0.0954
GTGATATA | -0.253
CACCTAGC | -0.1
ACTGAGTC | 0.0143
GGCCGCGA | 0.086
AGGAATTG | -0.0579
CCGAGTAG | 0.197
ATCCCGGG | 0.392
CAGCTGAA | -0.236
ACGCGTCA | -0.313
GTCTGACA | -0.042
TAACATCA | -0.308
ACCCAGGG | -0.13
GAATCCGC | 0.259
TAGGACGA | -0.0757
CCGACCGC | 0.195
AGACCGTG | -0.032
ACGTGAGC | -0.208

Sequence | PBM E-score
AGCTCGCC | 0.0362
GCATCACA | -0.209
GTCTTGCA | -0.0978
AATCTACT | -0.0131
GCATCGAA | -0.168
GCCTACAC | -0.186
CTGCGGGA | 0.111
ATTCGTGG | -0.222
TGCGTGAA | 0.101
CGAAACAG | -0.0457
CAGCTGTC | -0.166
AGGTGCAT | -0.123
GCTACCAC | -0.297
AACACCGA | 0.318
AAGGGGTA | -0.156
AACTCTCC | 0.169
AGACATGC | -0.196
CGCAGATC | 0.0117
CGACTACG | 0.115
CTGATACA | -0.163
AGCCACAC | -0.137
AAACTCAT | 0.0904
CGGCGCCG | 0.461
TAAACTCA | -0.0968
CGAGTCAA | -0.0521

Sequence | PBM E-score
ATGCATGA | 0.00566
CTAGACTC | -0.192
AAGCCTAA | -0.0334
ATACCGTC | 0.153
AAGTCTCC | -0.0296
CATGAGCA | -0.145
CAATTGTG | -0.153
AAGTCATT | -0.273
CAATGAGC | -0.0129
TATAAAAA | 0.114
AGAGGTAG | -0.215
CGGCGTCC | 0.361
CGAGCCCA | -0.139
AGTCGCCC | -0.0585
ACCGCTAC | 0.0541
CTCGAGAA | -0.239
AGTAGTTA | 0.00027
GTAAAACA | -0.193
AGTCGGAT | 0.282
CGCTATGA | 0.00533
ATGCTAGG | -0.12
GCTGGTAA | -0.0826
